Out of some 310,000 compounds screened, about 2,200 (0.71%) showed an effect of 50% or more. Effects have a minus sign here. The list shows a part of the results.
Biological target: human ether-à-go-go-related gene (hERG) potassium channel (human, UniProt Q12809)
Experiment: primary screen, population patch clamp on CHO cells stably expressing hERG

Chain of human ether-à-go-go-related gene (hERG) potassium channel (Q12809 whole entry, looked up): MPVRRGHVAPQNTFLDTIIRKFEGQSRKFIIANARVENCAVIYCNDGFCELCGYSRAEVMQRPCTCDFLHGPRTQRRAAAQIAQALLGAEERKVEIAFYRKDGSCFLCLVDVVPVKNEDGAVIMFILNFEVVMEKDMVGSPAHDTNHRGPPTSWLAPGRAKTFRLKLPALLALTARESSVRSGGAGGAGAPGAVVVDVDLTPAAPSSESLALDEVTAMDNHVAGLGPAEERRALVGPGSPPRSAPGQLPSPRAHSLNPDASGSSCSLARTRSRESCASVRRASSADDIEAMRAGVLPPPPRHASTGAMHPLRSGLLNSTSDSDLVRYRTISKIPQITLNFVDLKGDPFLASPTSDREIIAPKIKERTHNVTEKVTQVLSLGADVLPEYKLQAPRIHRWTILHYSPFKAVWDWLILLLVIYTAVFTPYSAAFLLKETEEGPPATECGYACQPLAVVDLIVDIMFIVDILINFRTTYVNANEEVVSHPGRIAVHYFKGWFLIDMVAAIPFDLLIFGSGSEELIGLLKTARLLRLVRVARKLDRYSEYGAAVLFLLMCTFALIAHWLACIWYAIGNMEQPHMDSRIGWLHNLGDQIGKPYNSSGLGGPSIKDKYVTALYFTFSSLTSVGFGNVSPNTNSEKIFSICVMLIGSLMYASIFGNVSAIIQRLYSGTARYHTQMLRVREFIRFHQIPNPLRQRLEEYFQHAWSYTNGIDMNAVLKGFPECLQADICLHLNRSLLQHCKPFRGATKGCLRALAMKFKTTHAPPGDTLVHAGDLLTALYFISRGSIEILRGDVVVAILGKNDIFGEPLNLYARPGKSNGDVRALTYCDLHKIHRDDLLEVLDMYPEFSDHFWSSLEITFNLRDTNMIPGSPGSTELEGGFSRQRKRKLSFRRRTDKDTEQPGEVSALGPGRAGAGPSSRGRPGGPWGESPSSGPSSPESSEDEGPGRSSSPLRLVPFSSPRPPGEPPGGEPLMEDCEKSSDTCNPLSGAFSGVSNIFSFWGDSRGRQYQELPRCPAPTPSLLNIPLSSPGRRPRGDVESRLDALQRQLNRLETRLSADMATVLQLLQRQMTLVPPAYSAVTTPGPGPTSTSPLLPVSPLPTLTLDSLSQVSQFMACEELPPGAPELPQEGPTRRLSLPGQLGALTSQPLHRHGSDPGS

Point of comparison: `COc1cc(CC(=O)O)c(C(C)=O)cc1OC`, “hERG current change (%, negative = inhibition) at 1uM” value 7.16%. Against it:
- Cc1[nH]nc2c1C(=O)CCC2 — higher, 9.57%
- C=CCc1ccc(OCC(O)COc2ccc(CC=C)cc2OC)c(OC)c1 — higher, 10.3%
- Cc1cccc(NC(=O)Cn2c(=O)n(CCC(=O)NC3CCCC3)c(=O)c3ccccc32)c1 — higher, 12.1%
- N#CC(c1ccccc1)c1ccc(=O)[nH]n1 (stereo not shown) — lower, 6.17%
- COc1ccc(-n2nc(C(=O)NCC(=O)N3CCN(c4ccccc4F)CC3)c3ccccc3c2=O)cc1 — higher, 9.48%
- c1ccc(-n2nnc(-c3nccs3)n2)cc1 — higher, 14.4%
- COc1ccc(-c2c(C(F)(F)F)nn(C)c2NC(=O)c2cccnc2)cc1 — lower, 5.23%
- CC(C)c1ccc2oc(-c3ccc(NC(=O)c4ncn[nH]4)cc3)nc2c1 — lower, 7.04%
- COc1ccc(OCc2nnc(SCC(N)=O)n2N)cc1 — higher, 12.8%
- CN(C(=O)CCNC(=O)Cn1cnc2ccccc2c1=O)c1ccc(Br)cc1 — higher, 10.7%
- NNC(=O)c1ccc(COc2cccc3ccccc23)cc1 — lower, 6.19%
- Cc1cccc(C(=O)NCC(=O)OC(C)C(=O)Nc2ccc(Cl)cn2)c1 (stereo not shown) — lower, -1.33%
- O=C(c1ccccc1)c1cncc(Br)c1 — lower, 4.91%
- NC(=O)CSc1nnc(-c2ccccn2)n1N — higher, 12.4%
- Cc1ccc(-c2nnc(SCC(=O)N(CC(C)C)c3c(N)n(Cc4ccccc4)c(=O)[nH]c3=O)n2N)cc1 — higher, 12.1%
- O=C(CN1CCN(c2ccc(F)cc2)CC1)NCC1CCCO1 (stereo not shown) — lower, 1.66%
- O=C(Nc1ccccc1C(=O)NCC1CCCO1)c1ccccc1F (stereo not shown) — higher, 11.5%
- COc1ccc(-c2nc(CN3CCC(c4ccccc4)CC3)c(C)o2)cc1OC — lower, -13.5%
- CCOC(=O)Cc1csc(NC(=O)CC)n1 — lower, 5.73%
- COc1ccc(/C=N\NC(=O)c2ccccc2OC)cc1COc1c(F)c(F)c(F)c(F)c1F — higher, 18.9%
- COc1ccc(OC)c(NC(=O)C2CCN(C(=O)c3cccs3)CC2)c1 — higher, 18.9%
- CCCN1CCN(CCCNC(=O)C(CC)n2nc(C)c3sc4ccccc4c3c2=O)CC1 (stereo not shown) — lower, -19.9%
- CS(=O)(=O)N1CCc2ccc(NC(=O)C3CCCO3)cc2C1 (stereo not shown) — higher, 14.2%
- COc1ccc(CN2C(=O)CN(C3CCCCCC3)C(=O)C2c2ccc(F)cc2)cc1 (stereo not shown) — lower, 3.48%
- Cc1ccc(S(=O)(=O)NCc2ccc(N3CCN(C(=O)OC(C)(C)C)CC3)cc2)cc1 — lower, -4.99%
- O=C(O)c1cc(-c2cccc3ccccc23)nc2ccccc12 — higher, 13.7%
- Cc1nnc2ccc(-c3ccc(NS(=O)(=O)c4ccccc4F)cc3)nn12 — higher, 14.2%
- Cc1ccccc1SCC(=O)Nc1cc(S(=O)(=O)N2CCOCC2)ccc1N1CCOCC1 — lower, 6.92%
- Clc1ccc(OCCSc2nnnn2C2CCCCC2)cc1 — lower, 6.37%
- O=C1CCOc2cc(OCc3ccccc3)ccc21 — lower, 5.04%
- CCN(CC)c1nc2c(s1)C(=O)CC(C)(C)C2 — lower, 2.14%
- CN1c2ccccc2C(C)(C)C12C=Cc1cc(O)ccc1O2 (stereo not shown) — lower, -0.271%
- OC1(c2ccc(F)cc2)CSC(=Nc2cccnc2)N1Cc1ccco1 (stereo not shown) — lower, 4.87%
- O=C(COC(=O)Cc1c(Cl)cccc1Cl)Nc1ccc2[nH]c(=O)[nH]c2c1 — higher, 13.4%
- Cc1cc(=O)oc2cc(OCC(=O)N3CC(=O)Nc4ccccc43)c(Cl)cc12 — higher, 9.4%
- CN(c1ccccc1)S(=O)(=O)c1ccc(C(=O)NNC(=O)c2ccccc2F)cc1 — higher, 8.11%
- Cc1c(-c2ccccc2)nc2ccccc2c1C(=O)Nc1ccncc1 — lower, 2.08%
- O=C(/C=N/O)Nc1ccc2sc3ccccc3c2c1 — higher, 15.7%
- Cc1ccc(NC2=NCC(=O)N2Cc2cccs2)cc1C.Cl — lower, 5.28%
- Cc1ccc(CSCC(=O)N/N=C/c2cccc(OC3CSC3)c2)cc1 — higher, 12.4%
- O=C(O)c1ccc(-c2ccc(/C=c3/sc4nc5ccccc5n4c3=O)o2)cc1Cl — higher, 13.1%
- COc1ccc(NC(=O)CCCn2nc(C)c3c(C)n(-c4ccccc4)nc3c2=O)cc1 — higher, 13.1%
- O=C(CCCOc1ccc(Cl)cc1Cl)NCCCn1ccnc1 — lower, -22.8%
- COc1cc(CNc2ccccc2Oc2cc(=O)n(C)c(=O)n2C)cc(OC)c1OC — higher, 12.8%
- O=C(Nc1nc2c(cc3c4c(cccc42)CC3)s1)c1ccccc1Cl — higher, 16.1%
- O=C(Nc1ccc(N2CCCCC2)cc1)c1ccc2ccccc2n1 — higher, 10.4%
- COc1cccc(-c2cc(C(=O)NC3CC3)c3ccccc3n2)c1 — lower, -20.1%
- Cc1cc(=O)oc2cc(Oc3ccc(C(N)=O)cc3[N+](=O)[O-])ccc12 — lower, -5.23%
- O=C(CCS(=O)(=O)c1ccc(Br)cc1)Nc1ccc(Br)cc1F — higher, 7.33%
- CCOC(=O)C1=C(C)N(C)C(=O)NC1c1ccc2c(c1)OCO2 (stereo not shown) — lower, 6.95%
- COc1ccc(C(=O)COC(=O)c2sc(C)nc2C)cc1Cl — higher, 11.7%
- O=C(NCc1ccccc1)C1=C[C@@H](C2CC2)C[C@@H](OCCCCO)O1 — higher, 16.1%
- O=C(CN1CCN(c2ccc(O)cc2)CC1)NC1CCCc2ccccc21 (stereo not shown) — higher, 11.9%
- O=C1C2C3CC(C(Br)C3Br)C2C(=O)N1CC1CCCO1 (stereo not shown) — higher, 13%
- O=C(COc1ccc(Br)cc1)Nc1ccc2c(c1)C(=O)NC2=O — higher, 16.5%
- CCc1ccc(-c2nn(-c3ccccc3C)cc2C(=O)N2CCN(C3CCS(=O)(=O)C3)CC2)cc1 (stereo not shown) — higher, 7.43%
- CCCCOC(=O)c1ccc(NC(=O)COC(=O)c2ccc3ncsc3c2)cc1 — lower, -2.3%
- Cc1cccc(CCNC(=O)C2CCCN(S(=O)(=O)c3cccc4nsnc34)C2)c1 (stereo not shown) — lower, 1.58%
- CC(=O)N1N=C(c2cccnc2)CC1c1ccccc1O (stereo not shown) — higher, 7.43%
- CCOC(=O)c1ccc(NC(=S)N(CCCN2CCCC2)Cc2cccs2)cc1 — lower, -31.6%
- COc1ccc(OC)c(CNc2nc3ccccc3n2CCN2CCCCC2)c1 — lower, -19.3%
- COc1cc2ccccc2cc1C(=O)N(CCN(C)C)c1nc2c(F)cccc2s1.Cl — lower, -1.04%
- O=C(Nc1ccc(OCC(F)(F)C(F)F)cc1)c1ccncc1 — higher, 8.31%
- COCCCNC(=O)CSc1nc2sc(C(=O)OC)c(C)c2c(=O)n1N — lower, 4.18%
- O=C(CN1CCN(c2ccc(F)cc2)CC1)c1cccs1 — higher, 7.21%
- COc1ccc(N=c2cc(-c3ccc(OC)cc3)oc3ccccc23)cc1 — higher, 7.61%
- CCS(=O)(=O)N1CCC(C(=O)NCc2cc(OC)ccc2OC)CC1 — lower, 4.01%
- Cc1nc(Oc2ccccc2)c2ccccc2n1 — lower, 6.66%
- CN(C(=O)COC(=O)/C=C/c1ccc2c(c1)OCO2)c1c(N)n(Cc2ccccc2)c(=O)[nH]c1=O — lower, 4.69%
- O=C(CSCc1ccccc1Br)NNC(=S)NCc1ccco1 — lower, -4.72%
- O=C(Nc1ccc(Cl)c(C(F)(F)F)c1)[C@@H]1CC=C[C@@H]2CCN(C3CCCCC3)C(=O)[C@@H]21 — higher, 17.3%
- O=C(c1cc2c(s1)-c1ccccc1OC2)N1CCC2(CC1)OCCO2 — lower, -11.3%
- CCOc1ccc(C(=O)Nc2ccncc2)cc1 — lower, 4.89%
- COc1ccc(-c2c(C(=O)O)c(-c3ccccc3)cn2C)cc1 — higher, 21.8%
- COCCN1C(=O)N[C@@H](CCc2ccccc2)[C@H](C(C)=O)[C@H]1C — higher, 9.23%
- NC(=O)CCCn1c(C(=O)c2ccc(Cl)cc2)c2ccc(C(F)(F)F)cc2[n+]1[O-] — lower, -80.1%
- CC(C)CN(CC(C)C)C(=O)c1cc(S(=O)(=O)N2CCCCC2)c[nH]1 — higher, 16%
- COc1cccc(OCC(O)CN2CCN(c3ccc(F)cc3)CC2)c1.Cl (stereo not shown) — lower, -17.1%
- CC(=O)c1cn(CC(=O)Nc2ccc(C)c(C)c2)c2ccccc12 — higher, 17.8%
- CCOc1ccc(CN(C)CC(=O)Nc2cccc(C)c2)cc1OC — lower, -28.1%
- COc1ccc(C)cc1S(=O)(=O)N1CCCC(C(=O)NC2CC2)C1 (stereo not shown) — lower, 5.12%
- CC1(C)CCCN(Cc2c(O)ccc3c(=O)c(-c4nc5ccccc5s4)c(N)oc23)C1 — higher, 15.4%
- O=C(N/N=C/c1cnc(N2CCCCC2)s1)c1ccc(C(F)(F)F)cc1 — higher, 17.3%
- CC1CC(C)CN(C(=O)c2ccc(-c3ccc([N+](=O)[O-])cc3)o2)C1 (stereo not shown) — lower, -31%
- O=[N+]([O-])c1cc([N+](=O)[O-])c2cc(-c3cccnc3)[nH]c2c1 — higher, 16%
- CCOC(=O)c1c(C)[nH]c(C(=O)C(C)OC(=O)c2cccc(OCc3c(C)noc3C)c2)c1C (stereo not shown) — lower, 4.47%
- Cc1ccc(CCNC(=O)Cn2cccc2)cc1 — lower, -5.29%
